Source: article PMC4336329 (PLoS ONE, 2015)
About 14,000 (4.5%) of roughly 310,000 compounds showed an effect of 50% or more. The effect is printed as a negative number. Some of the results follow.

These compounds were tested against human ether-à-go-go-related gene (hERG) potassium channel (human, UniProt Q12809) (assay: primary screen, population patch clamp on CHO cells stably expressing hERG).
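Also: peak tail current of the secondary pulse compared with the same well before compound.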

human ether-à-go-go-related gene (hERG) potassium channel, sequence (Q12809 whole entry, looked up): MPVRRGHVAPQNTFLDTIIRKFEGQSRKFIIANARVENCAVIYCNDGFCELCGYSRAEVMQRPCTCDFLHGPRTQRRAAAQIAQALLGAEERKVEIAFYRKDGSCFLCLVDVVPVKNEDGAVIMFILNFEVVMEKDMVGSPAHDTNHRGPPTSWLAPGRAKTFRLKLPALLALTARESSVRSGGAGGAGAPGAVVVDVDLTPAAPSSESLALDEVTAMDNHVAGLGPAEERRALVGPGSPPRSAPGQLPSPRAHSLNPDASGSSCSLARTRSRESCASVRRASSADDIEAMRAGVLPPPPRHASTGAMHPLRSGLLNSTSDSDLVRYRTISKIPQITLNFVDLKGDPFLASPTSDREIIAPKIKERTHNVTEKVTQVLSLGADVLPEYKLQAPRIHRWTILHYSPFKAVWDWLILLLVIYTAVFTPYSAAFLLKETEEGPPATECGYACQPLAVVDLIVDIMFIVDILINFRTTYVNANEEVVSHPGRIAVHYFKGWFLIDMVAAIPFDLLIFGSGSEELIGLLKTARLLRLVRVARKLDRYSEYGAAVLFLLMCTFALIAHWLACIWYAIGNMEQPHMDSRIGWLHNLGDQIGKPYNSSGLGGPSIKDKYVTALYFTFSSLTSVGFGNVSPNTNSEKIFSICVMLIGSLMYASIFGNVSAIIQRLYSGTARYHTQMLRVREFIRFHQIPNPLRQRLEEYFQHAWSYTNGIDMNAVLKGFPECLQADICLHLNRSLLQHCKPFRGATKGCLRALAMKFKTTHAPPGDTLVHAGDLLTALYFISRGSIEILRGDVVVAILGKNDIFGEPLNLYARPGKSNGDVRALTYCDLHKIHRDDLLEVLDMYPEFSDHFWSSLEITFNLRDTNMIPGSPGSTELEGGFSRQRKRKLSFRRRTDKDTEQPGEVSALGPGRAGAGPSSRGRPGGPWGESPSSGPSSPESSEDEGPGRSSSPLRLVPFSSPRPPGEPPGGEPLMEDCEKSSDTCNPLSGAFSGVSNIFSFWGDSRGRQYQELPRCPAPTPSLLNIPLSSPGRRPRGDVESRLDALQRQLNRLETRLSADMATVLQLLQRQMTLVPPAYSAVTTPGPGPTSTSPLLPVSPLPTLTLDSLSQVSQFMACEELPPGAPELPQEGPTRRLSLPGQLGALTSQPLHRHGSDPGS

With `CCc1nc(C)ccc1OCC(=O)NCCCN(C)C.O=C(O)C(=O)O` as the compound, how does the “hERG current change (%, negative = inhibition) at 10uM” value read?
The value was 4.48%.

With `Cc1ccc(-n2c(C)nnc2SC(C)C(=O)N2CCCC2)cc1` (stereo not drawn) as the compound, how does the “hERG current change (%, negative = inhibition) at 10uM” value read?
Its value is 12.4%.

How did the “hERG current change (%, negative = inhibition) at 10uM” value turn out when `CC(NC(=O)OCc1ccccc1)C(=O)Oc1cc2oc(=O)cc(-c3ccccc3)c2cc1Cl` (stereo not drawn) was run?
The value was 8.91%.

`Cc1cc(C)n(-c2ccc(C(=O)Nc3nc4ccccc4s3)cc2)n1` was tested. Which “hERG current change (%, negative = inhibition) at 10uM” value did it give?
Its value is 11.4%.

Which “hERG current change (%, negative = inhibition) at 10uM” value does the source give for `O=[N+]([O-])c1ccc(N2CCN(c3ccccc3)CC2)nc1` here?
Its value is 4.96%.

With `CCC(=O)c1ccc(O)cc1` as the compound, how does the “hERG current change (%, negative = inhibition) at 10uM” value read?
The value was 11.7%.

Which “hERG current change (%, negative = inhibition) at 10uM” value does the source give for `O=C(CN1C(=O)NC2(CCCC2)C1=O)N1CCN(c2ccccc2O)CC1` here?
The value was 0.336%.

How did the “hERG current change (%, negative = inhibition) at 10uM” value turn out when `O=C(COc1nc2ccccc2nc1N1CCOCC1)NCC(F)(F)F` was run?
Its value is 0.307%.

For `Cc1noc(C)c1COc1ccc(C(=O)OCC(=O)OC(C)(C)C)cc1`, which “hERG current change (%, negative = inhibition) at 10uM” value is on record?
Its value is 3.21%.

How did the “hERG current change (%, negative = inhibition) at 10uM” value turn out when `NS(=O)(=O)c1ccc(CCNC(=O)C(c2ccccc2)c2ccccc2)cc1` was run?
Its value is 14.3%.

`COc1ccc(-n2c(SCC(N)=O)nc3sc4c(c3c2=O)CCN(C)C4)cc1` was tested. Which “hERG current change (%, negative = inhibition) at 10uM” value did it give?
The value was 10.2%.

For `CC1=C(C(=O)Nc2ccccc2)C2(CCCCC2)C(C#N)=C(S)N1`, which “hERG current change (%, negative = inhibition) at 10uM” value is on record?
The value was 17.5%.

Which “hERG current change (%, negative = inhibition) at 10uM” value does the source give for `CC(Oc1ccccc1)C(=O)Nc1oc(-c2ccco2)c(-c2ccco2)c1C#N` (stereo not drawn) here?
Its value is 15.9%.

With `Cc1ccc(C)c(-n2c(Cc3cc(=O)[nH]c(=O)[nH]3)nnc2SCC(=O)NCc2ccco2)c1` as the compound, how does the “hERG current change (%, negative = inhibition) at 10uM” value read?
The value was 4.83%.

`CC(C)CN(C(=O)c1ccc(N2CCCC2=O)cc1)c1c(N)n(Cc2ccccc2)c(=O)[nH]c1=O` was tested. Which “hERG current change (%, negative = inhibition) at 10uM” value did it give?
Its value is 19.6%.

For `CCCC(=O)Nc1c2c(nn1-c1ccc(OC)cc1)CS(=O)C2` (stereo not drawn), which “hERG current change (%, negative = inhibition) at 10uM” value is on record?
The value was 18.1%.

How did the “hERG current change (%, negative = inhibition) at 10uM” value turn out when `COc1ccc(C(=O)NC(C)c2nnc(SCC(=O)Nc3nc4ccccc4s3)n2C)cc1` (stereo not drawn) was run?
The value was -59.4%.

With `CN(C)c1cc[n+](CC(=O)Nc2c(Cl)cc(Cl)cc2Cl)cc1.[Cl-]` as the compound, how does the “hERG current change (%, negative = inhibition) at 10uM” value read?
Its value is 10.5%.

`S=C(c1ccc2c(c1)OCO2)N1CCCCC1` was tested. Which “hERG current change (%, negative = inhibition) at 10uM” value did it give?
The value was 11.5%.

For `Cc1ccc(SCC(=O)NCc2ccccc2)cc1`, which “hERG current change (%, negative = inhibition) at 10uM” value is on record?
The value was 2.88%.

How did the “hERG current change (%, negative = inhibition) at 10uM” value turn out when `O=C(CCN1C(=O)C2C3C=CC(C4CC34)C2C1=O)Oc1ccccc1` (stereo not drawn) was run?
Its value is -43.5%.

Which “hERG current change (%, negative = inhibition) at 10uM” value does the source give for `O=C(C1=NNCC1c1ccccc1)C1OC1c1ccccc1` (stereo not drawn) here?
The value was -1.87%.

How did the “hERG current change (%, negative = inhibition) at 10uM” value turn out when `COC(=O)N/N=C/c1c(C)c(C(=O)c2ccc(F)cc2)n2ccccc12` was run?
The value was -14.9%.

`CCNC(=O)OCc1cn(-c2ccc(Cl)cc2)nn1` was tested. Which “hERG current change (%, negative = inhibition) at 10uM” value did it give?
Its value is 17.3%.

`COc1ccc(CCNc2ccncn2)cc1OC.Cl` was tested. Which “hERG current change (%, negative = inhibition) at 10uM” value did it give?
The value was 4.23%.

`Cc1ccc(N2C(=O)CC(Sc3cccs3)C2=O)cc1` (stereo not drawn) was tested. Which “hERG current change (%, negative = inhibition) at 10uM” value did it give?
Its value is 12%.

With `CCCn1c(=O)[nH]c(=O)c2c1nc(-c1ccc(C(F)(F)F)cc1)n2CCOC` as the compound, how does the “hERG current change (%, negative = inhibition) at 10uM” value read?
The value was -4.45%.

For `Cc1cccc(NC(=O)c2ccc([N+](=O)[O-])s2)n1`, which “hERG current change (%, negative = inhibition) at 10uM” value is on record?
Its value is -13.3%.

With `Clc1ccc(Cl)c(OCCN2CCOCC2)c1` as the compound, how does the “hERG current change (%, negative = inhibition) at 10uM” value read?
The value was -3.47%.

For `CN1CCN(C(=S)c2cn(Cc3ccc(Br)cc3)c3ccccc23)CC1`, which “hERG current change (%, negative = inhibition) at 10uM” value is on record?
The value was 13.3%.

For `CCC(C)NCCC(=O)Nc1ccc(Cl)c(S(=O)(=O)Nc2ccc(Cl)cc2)c1` (stereo not drawn), which “hERG current change (%, negative = inhibition) at 10uM” value is on record?
Its value is -53.6%.

With `Cc1c(N=Cc2ccccn2)c(=O)n(-c2ccccc2)n1C` as the compound, how does the “hERG current change (%, negative = inhibition) at 10uM” value read?
Its value is -9.02%.

Which “hERG current change (%, negative = inhibition) at 10uM” value does the source give for `S=C(Nc1cccc2ccccc12)NN1CCOCC1` here?
The value was 4.15%.

`COC(=O)c1ccc(NC2=C(Cl)C(=O)OC2OC(=O)c2ccccc2)cc1` (stereo not drawn) was tested. Which “hERG current change (%, negative = inhibition) at 10uM” value did it give?
Its value is -22.5%.

Which “hERG current change (%, negative = inhibition) at 10uM” value does the source give for `Cc1c(C(=O)Nc2ccc(-n3cnnn3)cc2)oc2ccccc12` here?
The value was 3.71%.

`CCCCOc1ccc(Cc2n[nH]c(=S)n2N)cc1` was tested. Which “hERG current change (%, negative = inhibition) at 10uM” value did it give?
The value was 16.7%.

`Cc1ccc(N2CC(C(=O)NCc3ccc(C)n3C)CC2=O)cc1` (stereo not drawn) was tested. Which “hERG current change (%, negative = inhibition) at 10uM” value did it give?
The value was 14.9%.

For `COc1cccc(N2CCN(C(=S)Nc3ccc(C)cc3C)CC2)c1`, which “hERG current change (%, negative = inhibition) at 10uM” value is on record?
Its value is 14%.

`CC(C)[N+]1=C2C=CC=CC=C2SC12C([N+](=O)[O-])=CC(=[N+]([O-])[O-])C=C2[N+](=O)[O-]` (stereo not drawn) was tested. Which “hERG current change (%, negative = inhibition) at 10uM” value did it give?
Its value is 8.46%.

With `COc1ccc(-c2noc(=O)n2Cc2ccc(C#N)cc2)cc1` as the compound, how does the “hERG current change (%, negative = inhibition) at 10uM” value read?
Its value is -70.1%.

For `CC(=O)c1sc(N)c(C(=O)OC(C)C)c1C`, which “hERG current change (%, negative = inhibition) at 10uM” value is on record?
The value was 7.72%.

For `O=C(NCCN1C(=O)S/C(=C\c2ccccc2)C1=O)c1cc(S(=O)(=O)N2CCOCC2)c(Cl)cc1Cl`, which “hERG current change (%, negative = inhibition) at 10uM” value is on record?
Its value is -14.6%.

`O=C(CCc1c[nH]c2ccccc12)NC(Cc1ccccc1)C(=O)O` (stereo not drawn) was tested. Which “hERG current change (%, negative = inhibition) at 10uM” value did it give?
The value was 27.2%.

`COc1ccccc1NC(=O)N1CCC(c2nnc(SCC(N)=O)n2C)CC1` was tested. Which “hERG current change (%, negative = inhibition) at 10uM” value did it give?
Its value is 19.1%.

Which “hERG current change (%, negative = inhibition) at 10uM” value does the source give for `Cc1cc(C)nc(SCc2ccc(C(=O)NN=C3C4CC5CC(C4)CC3C5)cc2)n1` here?
The value was -16.9%.

With `Cc1ccc(NC(=O)C2CCCCC2)c(O)c1` as the compound, how does the “hERG current change (%, negative = inhibition) at 10uM” value read?
Its value is 12.5%.

With `CN(C)c1nc(NCc2ccccc2)nc(SCC(=O)Nc2ccc(Cl)c(Cl)c2)n1` as the compound, how does the “hERG current change (%, negative = inhibition) at 10uM” value read?
The value was -7.82%.

With `O=C(CSCc1ccc([N+](=O)[O-])cc1)Nc1cccc(C(=O)Nc2ccccc2C(=O)O)c1` as the compound, how does the “hERG current change (%, negative = inhibition) at 10uM” value read?
Its value is 24.5%.

Which “hERG current change (%, negative = inhibition) at 10uM” value does the source give for `CCOC(=O)c1cc(C(C)=O)n2ccccc12` here?
The value was -7.93%.

`O=C(OCC(=O)N1CCc2ccccc21)c1nc(Cl)ccc1Cl` was tested. Which “hERG current change (%, negative = inhibition) at 10uM” value did it give?
The value was -4.3%.

How did the “hERG current change (%, negative = inhibition) at 10uM” value turn out when `O=C(Nn1cnnc1)c1ccc(F)c(S(=O)(=O)N2CCCCC2)c1` was run?
The value was 11.3%.

With `COc1ccc(-c2nc(CN3CCN(C(=O)c4ccco4)CC3)c(C)o2)c(F)c1` as the compound, how does the “hERG current change (%, negative = inhibition) at 10uM” value read?
The value was -13.6%.

`CC(=O)Nc1cc(NC(C)=O)cc(C(=O)NC(C)(C)C)c1` was tested. Which “hERG current change (%, negative = inhibition) at 10uM” value did it give?
The value was -1.78%.

For `COC(=O)c1ccc(=O)n(Cc2ccco2)c1`, which “hERG current change (%, negative = inhibition) at 10uM” value is on record?
The value was 0.244%.

How did the “hERG current change (%, negative = inhibition) at 10uM” value turn out when `COC(=O)C1=C(C)N(c2ccc(OC)cc2)C(C)=C(C(=O)OC)C1c1ccc(OC)cc1` was run?
Its value is 19.1%.

`COc1ccccc1/C=C/C(=O)OCC(=O)NC1CCCCCC1` was tested. Which “hERG current change (%, negative = inhibition) at 10uM” value did it give?
The value was -5.97%.

`CCCOc1ccc(C(=O)N2CCN(Cc3ccc4c(c3)OCO4)CC2)cc1` was tested. Which “hERG current change (%, negative = inhibition) at 10uM” value did it give?
The value was -67.7%.
